From the supplement of paper PMC4604168 (melanoma cell lines)
The list shows a part of the results. Repeats are few or missing, and single values can be far off.

Assays:
Experiment in all cases: cell count relative to DMSO control; melanoma cells; higher = more viable cells
Settings in all cases: library dose: low library concentration; 72 h
WM115 = tested on: WM115
WM1716 = tested on: WM1716
WM1745 = tested on: WM1745
WM3526 = tested on: WM3526
WM3619 = tested on: WM3619
WM451Lu = tested on: WM451Lu
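Also: cell number obtained by counting DAPI-stained nuclei in high-throughput microscope images with image analysis software, screen run in 1,536-well plates.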

CC(C)C[C@H](NC(=O)[C@H](Cc1ccccc1)NC(=O)c1cnccn1)B(O)O [Bortezomib] + OCCn1cc(-c2cnc3nnn(Cc4ccc5ncccc5c4)c3n2)cn1 [PF04217903] (first compound 0.001 µM, partner dose 1 µM)
cell count (WM115): 80% | cell count (WM1716): 42.6% | cell count (WM1745): 51.7% | cell count (WM3526): 88.2% | cell count (WM3619): 25% | cell count (WM451Lu): 84%

Cc1cn(-c2cc(NC(=O)c3ccc(C)c(Nc4nccc(-c5cccnc5)n4)c3)cc(C(F)(F)F)c2)cn1 [nilotinib] + Nc1nc(F)nc2c1ncn2[C@@H]1O[C@H](CO)[C@@H](O)[C@@H]1O [fludarabine] (first compound 0.2 µM, partner dose 0.2 µM)
cell count (WM115): 97.4% | cell count (WM1716): 97.1% | cell count (WM1745): 104% | cell count (WM3526): 25.7% | cell count (WM3619): 80.9% | cell count (WM451Lu): 55.2%

Cn1c(=O)n(-c2ccc(C(C)(C)C#N)cc2)c2c3cc(-c4cnc5ccccc5c4)ccc3ncc21 + Nc1nc(F)nc2c1ncn2[C@@H]1O[C@H](CO)[C@@H](O)[C@@H]1O [fludarabine] (first compound 0.004 µM, partner dose 0.2 µM)
cell count (WM115): 90.1% | cell count (WM1716): 84.2% | cell count (WM1745): 96.4% | cell count (WM3526): 36% | cell count (WM3619): 81.5% | cell count (WM451Lu): 64.4%

CC(C)C[C@H](NC(=O)[C@H](Cc1ccccc1)NC(=O)c1cnccn1)B(O)O [Bortezomib] + CCCS(=O)(=O)Nc1ccc(F)c(C(=O)c2c[nH]c3ncc(Cl)cc23)c1F [PLX4720] (first compound 0.001 µM, partner dose 0.08 µM)
cell count (WM115): 99.6% | cell count (WM1716): 31.4% | cell count (WM1745): 57.3% | cell count (WM3526): 64.1% | cell count (WM3619): 14.3% | cell count (WM451Lu): 86.8%

Cc1cn(-c2cc(NC(=O)c3ccc(C)c(Nc4nccc(-c5cccnc5)n4)c3)cc(C(F)(F)F)c2)cn1 [nilotinib] + COc1ccc(COc2ccc(Cc3cnc(N)nc3N)cc2OC)cc1 [GW2580] (first compound 0.2 µM, partner dose 1 µM)
cell count (WM115): 111% | cell count (WM1716): 94.9% | cell count (WM1745): 89.7% | cell count (WM3526): 105% | cell count (WM3619): 110% | cell count (WM451Lu): 117%

Cc1cc(Nc2cc(N3CCN(C)CC3)nc(/C=C/c3ccccc3)n2)n[nH]1 + Nc1cccc2c1CN(C1CCC(=O)NC1=O)C2=O [lenalidomide] (first compound 0.04 µM, partner dose 1 µM)
cell count (WM115): 92.2% | cell count (WM1716): 98.1% | cell count (WM1745): 97.6% | cell count (WM3526): 92.8% | cell count (WM3619): 88.1% | cell count (WM451Lu): 99.7%

Cc1cc(Nc2cc(N3CCN(C)CC3)nc(/C=C/c3ccccc3)n2)n[nH]1 + CS(=O)(=O)CCNCc1ccc(-c2ccc3ncnc(Nc4ccc(OCc5cccc(F)c5)c(Cl)c4)c3c2)o1 [lapatinib] (first compound 0.04 µM, partner dose 0.8 µM)
cell count (WM115): 91.1% | cell count (WM1716): 99.7% | cell count (WM1745): 89.2% | cell count (WM3526): 78% | cell count (WM3619): 92.2% | cell count (WM451Lu): 93.3%

Cn1c(=O)n(-c2ccc(C(C)(C)C#N)cc2)c2c3cc(-c4cnc5ccccc5c4)ccc3ncc21 + Nc1ccn([C@@H]2O[C@H](CO)[C@@H](O)C2(F)F)c(=O)n1 [gemcitabine] (first compound 0.004 µM, partner dose 0.0004 µM)
cell count (WM115): 93% | cell count (WM1716): 97.1% | cell count (WM1745): 78.7% | cell count (WM3526): 92.7% | cell count (WM3619): 68.9% | cell count (WM451Lu): 95.7%

Cn1c(=O)n(-c2ccc(C(C)(C)C#N)cc2)c2c3cc(-c4cnc5ccccc5c4)ccc3ncc21 + Cn1cc(/C=C2\C(=O)Nc3cccnc32)c2ccccc21 [GW441756] (first compound 0.004 µM, partner dose 0.4 µM)
cell count (WM115): 91.8% | cell count (WM1716): 94.7% | cell count (WM1745): 126% | cell count (WM3526): 105% | cell count (WM3619): 139% | cell count (WM451Lu): 114%

Cc1cn(-c2cc(NC(=O)c3ccc(C)c(Nc4nccc(-c5cccnc5)n4)c3)cc(C(F)(F)F)c2)cn1 [nilotinib] + C[C@]1(O)C[C@@H](c2nc(-c3ccc4ccc(-c5ccccc5)nc4c3)c3c(N)nccn32)C1 [OSI906] (first compound 0.2 µM, partner dose 0.4 µM)
cell count (WM115): 98.7% | cell count (WM1716): 83.5% | cell count (WM1745): 57% | cell count (WM3526): 85% | cell count (WM3619): 89.2% | cell count (WM451Lu): 93.5%

Cc1cc(Nc2cc(N3CCN(C)CC3)nc(/C=C/c3ccccc3)n2)n[nH]1 + Cc1cc([N+](=O)[O-])ccc1NS(=O)(=O)c1cc(Cl)ccc1Cl [FH535] (first compound 0.04 µM, partner dose 1 µM)
cell count (WM115): 80.8% | cell count (WM1716): 91% | cell count (WM1745): 87.3% | cell count (WM3526): 89.9% | cell count (WM3619): 110% | cell count (WM451Lu): 95%

CC(C)C[C@H](NC(=O)[C@H](Cc1ccccc1)NC(=O)c1cnccn1)B(O)O [Bortezomib] + CC(C)(C)c1cnc(CSc2cnc(NC(=O)C3CCNCC3)s2)o1 [SNS-032] (first compound 0.001 µM, partner dose 0.01 µM)
cell count (WM115): 97.8% | cell count (WM1716): 42.1% | cell count (WM1745): 62.4% | cell count (WM3526): 94.2% | cell count (WM3619): 14.9% | cell count (WM451Lu): 99.4%

Cc1cc(Nc2cc(N3CCN(C)CC3)nc(/C=C/c3ccccc3)n2)n[nH]1 + COc1ccc(Cl)c(Nc2nc3ccccc3nc2NS(=O)(=O)c2cccc(NC(=O)C(C)(C)N)c2)c1 [XL147] (first compound 0.04 µM, partner dose 0.8 µM)
cell count (WM115): 96.5% | cell count (WM1716): 100% | cell count (WM1745): 82.5% | cell count (WM3526): 102% | cell count (WM3619): 97.3% | cell count (WM451Lu): 91.8%

Cc1cc(Nc2cc(N3CCN(C)CC3)nc(/C=C/c3ccccc3)n2)n[nH]1 + C[C@@H]1CCN(C(=O)CC#N)C[C@@H]1N(C)c1ncnc2[nH]ccc12 [CP690550] (first compound 0.04 µM, partner dose 1 µM)
cell count (WM115): 99.7% | cell count (WM1716): 95.5% | cell count (WM1745): 84% | cell count (WM3526): 91.7% | cell count (WM3619): 102% | cell count (WM451Lu): 104%

Cc1cn(-c2cc(NC(=O)c3ccc(C)c(Nc4nccc(-c5cccnc5)n4)c3)cc(C(F)(F)F)c2)cn1 [nilotinib] + CC1(C)NC(=O)N(c2ccc([N+](=O)[O-])c(C(F)(F)F)c2)C1=O [nilutamide] (first compound 0.2 µM, partner dose 1 µM)
cell count (WM115): 108% | cell count (WM1716): 106% | cell count (WM1745): 79.5% | cell count (WM3526): 94.7% | cell count (WM3619): 133% | cell count (WM451Lu): 95.9%

Cn1c(=O)n(-c2ccc(C(C)(C)C#N)cc2)c2c3cc(-c4cnc5ccccc5c4)ccc3ncc21 + COc1ccc(COc2ccc(Cc3cnc(N)nc3N)cc2OC)cc1 [GW2580] (first compound 0.004 µM, partner dose 1 µM)
cell count (WM115): 89.9% | cell count (WM1716): 86.6% | cell count (WM1745): 107% | cell count (WM3526): 88.9% | cell count (WM3619): 99.3% | cell count (WM451Lu): 102%

Cc1cn(-c2cc(NC(=O)c3ccc(C)c(Nc4nccc(-c5cccnc5)n4)c3)cc(C(F)(F)F)c2)cn1 [nilotinib] + COc1cc(Nc2ncc(F)c(Nc3ccc4c(n3)NC(=O)C(C)(C)O4)n2)cc(OC)c1OC [Tamatinib] (first compound 0.2 µM, partner dose 0.4 µM)
cell count (WM115): 94.4% | cell count (WM1716): 92.9% | cell count (WM1745): 69.4% | cell count (WM3526): 93% | cell count (WM3619): 119% | cell count (WM451Lu): 97.4%

Cc1cn(-c2cc(NC(=O)c3ccc(C)c(Nc4nccc(-c5cccnc5)n4)c3)cc(C(F)(F)F)c2)cn1 [nilotinib] + NC1(c2ccc(-c3nc4ccn5c(=O)[nH]nc5c4cc3-c3ccccc3)cc2)CCC1 [MK2206] (first compound 0.2 µM, partner dose 0.4 µM)
cell count (WM115): 85.7% | cell count (WM1716): 100% | cell count (WM1745): 92.1% | cell count (WM3526): 78.5% | cell count (WM3619): 92.3% | cell count (WM451Lu): 101%

Cc1cn(-c2cc(NC(=O)c3ccc(C)c(Nc4nccc(-c5cccnc5)n4)c3)cc(C(F)(F)F)c2)cn1 [nilotinib] + O=C1NC(=O)/C(=C/c2ccc(-c3ccc(F)cc3O)o2)S1 [AS252424] (first compound 0.2 µM, partner dose 1 µM)
cell count (WM115): 108% | cell count (WM1716): 94.6% | cell count (WM1745): 98.3% | cell count (WM3526): 93.9% | cell count (WM3619): 99.1% | cell count (WM451Lu): 134%

Cn1c(=O)n(-c2ccc(C(C)(C)C#N)cc2)c2c3cc(-c4cnc5ccccc5c4)ccc3ncc21 + CC(C)(C)c1cnc(CSc2cnc(NC(=O)C3CCNCC3)s2)o1 [SNS-032] (first compound 0.004 µM, partner dose 0.01 µM)
cell count (WM115): 84% | cell count (WM1716): 95.7% | cell count (WM1745): 99.4% | cell count (WM3526): 85.8% | cell count (WM3619): 97.7% | cell count (WM451Lu): 108%

CC(C)C[C@H](NC(=O)[C@H](Cc1ccccc1)NC(=O)c1cnccn1)B(O)O [Bortezomib] + Cc1cc(N2CCOCC2)cc2[nH]c(-c3c(NC[C@@H](O)c4cccc(Cl)c4)cc[nH]c3=O)nc12 [BMS536924] (first compound 0.001 µM, partner dose 0.2 µM)
cell count (WM115): 110% | cell count (WM1716): 44.3% | cell count (WM1745): 47.3% | cell count (WM3526): 88.6% | cell count (WM3619): 14.6% | cell count (WM451Lu): 76.5%

Cc1cn(-c2cc(NC(=O)c3ccc(C)c(Nc4nccc(-c5cccnc5)n4)c3)cc(C(F)(F)F)c2)cn1 [nilotinib] + Oc1cc(-c2nc(-c3ccccc3)[nH]c2-c2ccncc2)ccc1Cl [L779450] (first compound 0.2 µM, partner dose 0.2 µM)
cell count (WM115): 80.9% | cell count (WM1716): 108% | cell count (WM1745): 94.1% | cell count (WM3526): 85.6% | cell count (WM3619): 113% | cell count (WM451Lu): 107%

Cc1cc(Nc2cc(N3CCN(C)CC3)nc(/C=C/c3ccccc3)n2)n[nH]1 + Oc1nc(-c2ccc(C(F)(F)F)cc2)nc2c1CSCC2 [XAV939] (first compound 0.04 µM, partner dose 2 µM)
cell count (WM115): 83.5% | cell count (WM1716): 77.1% | cell count (WM1745): 79.6% | cell count (WM3526): 103% | cell count (WM3619): 99.9% | cell count (WM451Lu): 93.4%

Cn1c(=O)n(-c2ccc(C(C)(C)C#N)cc2)c2c3cc(-c4cnc5ccccc5c4)ccc3ncc21 + C[C@@H]1CCN(C(=O)CC#N)C[C@@H]1N(C)c1ncnc2[nH]ccc12 [CP690550] (first compound 0.004 µM, partner dose 1 µM)
cell count (WM115): 97.9% | cell count (WM1716): 94% | cell count (WM1745): 88.8% | cell count (WM3526): 92.3% | cell count (WM3619): 91.1% | cell count (WM451Lu): 78.8%

COc1ccc(C2=N[C@@H](c3ccc(Cl)cc3)[C@@H](c3ccc(Cl)cc3)N2C(=O)N2CCNC(=O)C2)c(OC(C)C)c1 [Nutlin-3] + Nc1cccc2c1CN(C1CCC(=O)NC1=O)C2=O [lenalidomide] (first compound 0.1 µM, partner dose 1 µM)
cell count (WM115): 94.7% | cell count (WM1716): 83.3% | cell count (WM1745): 86.3% | cell count (WM3526): 91.6% | cell count (WM3619): 87.6% | cell count (WM451Lu): 104%
